Measurements: publication PMC4336329 (PLoS ONE, 2015)
Screen size: about 310,000 compounds; about 14,000 (4.5%) showed an effect of 50% or more. Effects have a minus sign here. The list shows a part of the results.

These compounds were tested against human ether-à-go-go-related gene (hERG) potassium channel (human, UniProt Q12809) (assay: primary screen, population patch clamp on CHO cells stably expressing hERG).
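Note: peak tail current of the secondary pulse compared with the same well before compound.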

Sequence of human ether-à-go-go-related gene (hERG) potassium channel (Q12809 whole entry, looked up): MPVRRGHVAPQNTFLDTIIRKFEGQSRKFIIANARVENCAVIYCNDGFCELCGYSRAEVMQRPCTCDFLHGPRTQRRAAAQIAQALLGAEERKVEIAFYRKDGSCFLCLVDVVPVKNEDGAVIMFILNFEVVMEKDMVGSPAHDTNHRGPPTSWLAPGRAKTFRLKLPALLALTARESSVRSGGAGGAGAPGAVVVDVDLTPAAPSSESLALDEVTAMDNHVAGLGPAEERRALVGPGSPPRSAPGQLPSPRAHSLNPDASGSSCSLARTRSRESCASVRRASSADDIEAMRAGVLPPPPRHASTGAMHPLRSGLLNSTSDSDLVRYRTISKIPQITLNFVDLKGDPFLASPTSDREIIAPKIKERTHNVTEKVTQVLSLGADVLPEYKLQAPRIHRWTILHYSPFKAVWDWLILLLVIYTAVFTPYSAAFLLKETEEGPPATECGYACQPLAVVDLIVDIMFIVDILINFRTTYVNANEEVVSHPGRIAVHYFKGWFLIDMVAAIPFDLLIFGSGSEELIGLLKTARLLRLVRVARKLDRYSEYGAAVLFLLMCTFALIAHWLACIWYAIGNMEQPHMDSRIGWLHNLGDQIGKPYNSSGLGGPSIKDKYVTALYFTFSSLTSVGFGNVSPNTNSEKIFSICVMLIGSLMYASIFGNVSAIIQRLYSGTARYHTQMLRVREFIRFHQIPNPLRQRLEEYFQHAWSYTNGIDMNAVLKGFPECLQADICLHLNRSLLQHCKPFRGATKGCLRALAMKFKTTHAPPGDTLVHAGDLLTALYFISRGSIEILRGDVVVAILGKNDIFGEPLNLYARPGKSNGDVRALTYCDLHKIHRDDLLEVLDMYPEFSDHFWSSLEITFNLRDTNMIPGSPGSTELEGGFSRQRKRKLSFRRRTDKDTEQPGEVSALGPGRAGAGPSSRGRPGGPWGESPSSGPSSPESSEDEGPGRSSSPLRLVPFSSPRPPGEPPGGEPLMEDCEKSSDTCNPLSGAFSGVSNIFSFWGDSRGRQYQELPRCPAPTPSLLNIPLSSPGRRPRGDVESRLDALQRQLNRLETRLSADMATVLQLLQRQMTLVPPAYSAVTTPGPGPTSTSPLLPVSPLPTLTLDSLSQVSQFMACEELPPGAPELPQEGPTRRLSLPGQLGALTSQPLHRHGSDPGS

| Structure (SMILES) | hERG current change (%, negative = inhibition) at 10uM |
| --- | --- |
| Cc1ccc(C(=O)OCC(=O)Nc2ccccc2)cc1NC(=O)c1ccco1 | -4.37% |
| Cc1nc2ccccc2cc1C(=O)N/N=C/c1cccs1 | -6.93% |
| Cc1ccc(NC(=O)CN2C(=O)CCSc3ccc(S(=O)(=O)N4CCCC4)cc32)cc1C | 13.3% |
| CC(NC(=O)c1ccccc1)C(=O)OCC(=O)c1ccc(Br)cc1 (centres unmarked) | -4.63% |
| C=C1Cn2c(nnc2-c2ccc(Cl)cc2)S1 | -27.4% |
| COc1ccc2c3c1OC1CC(O)C=CC31CCN(C)C2 (centres unmarked) | 5.9% |
| Cc1cc(C)c2c(=O)[nH]n(C(C)C)c2n1 | 7.27% |
| O=C(NCc1ccc2c(c1)OCO2)C12CN(Cc3ccccc3)CC1C(c1cccc([N+](=O)[O-])c1)=NO2 (centres unmarked) | 12.2% |
| O=c1c(S(=O)(=O)c2ccc(Cl)cc2)cn(Cc2cccc(F)c2)c2ccc(F)cc12 | -43.7% |
| CCn1cc(CN2CCCC(C(=O)Nc3ccc(-c4cscn4)cc3)C2)cn1 (centres unmarked) | 0.185% |
| O=S(=O)(c1ccc(F)cc1)N1CCN(C(=S)NCCc2ccccc2)CC1 | 1.47% |
| O=C(N/N=C\c1ccc([N+](=O)[O-])o1)c1cncc(Br)c1 | -36.7% |
| C=C(C)c1cccc(C(C)(C)NC(=O)N2CCN(c3ccccc3OC)CC2)c1 | 4.28% |
| CCOC(=O)c1nc(C)nc(Sc2n[nH]c(-c3cc(Cl)cc(Cl)c3)n2)c1C | 4.12% |
| O=C1CCc2cc(NS(=O)(=O)c3ccccc3)cc3c2N1CCC3 | 14.1% |
| Cc1ccc(CN(C)C(=O)C2CCC(=O)N(C3CCCCCC3)C2)cc1 (centres unmarked) | 7.71% |
| CC1=N/C(=C/c2cccnc2)C(=O)O1 | 14.8% |
| COc1ccc(Cn2cccc(NC(=O)Nc3ccc(F)cc3)c2=O)cc1 | 28.6% |
| O=C(NCC(O)COc1ccc([N+](=O)[O-])cc1)c1ccccc1 (centres unmarked) | -40.4% |
| COc1cc2c(cc1OC)C(c1cccs1)CC(=O)N2 (centres unmarked) | 8.51% |
| O=C(Nc1ccccc1)C1CCCN1C(=O)NCc1ccccc1 (centres unmarked) | 10% |
| CCCCC(=O)NC(=S)NNS(=O)(=O)c1ccccc1 | -13.3% |
| COc1ccc(S(=O)(=O)N/N=C(/C)c2ccncc2)cc1OC | -1.27% |

| Structure (SMILES) | hERG current change (%, negative = inhibition) at 10uM |
| --- | --- |
| C/C(=N\NC(=O)c1cc2c(s1)CCC(C)C2)c1ccncc1 (centres unmarked) | 2.24% |
| CCCCNC(=O)Nc1nnc(SCC(=O)OCC)s1 | -91.2% |
| Cn1cncc1COC(=O)c1ccc(Cl)cc1 | 5.21% |
| O=C1C=Cc2ccccc2C1=O | 12.8% |
| CCCCC(CCC(=O)Nc1cccc([N+](=O)[O-])c1)C(=O)O (centres unmarked) | 10.3% |
| O=C(c1ccccc1[N+](=O)[O-])N1CCN(Cc2ccc3c(c2)OCO3)CC1 | -13.4% |
| COc1cc(NC(=O)Nc2ccc(Cl)c(Cl)c2)c(C(=O)O)cc1OC | -5.57% |
| Nc1ccc2nc(-c3ccc(-c4nc5ccc(N)cc5[nH]4)cc3)[nH]c2c1 | 7.64% |
| O=C(Oc1coc(CSc2nnc(NC(=O)C3CC3)s2)cc1=O)c1ccccc1 | 4.94% |
| O=C(COc1ccc2c3c(c(=O)oc2c1)CCC3)N1CCCC1 | 12.4% |
| CCCCNC(=S)N1CCn2cccc2C1c1cccnc1 (centres unmarked) | -25.9% |
| COCCn1c(=O)[nH]c2cc(C(=O)N3CCN(c4ccccc4F)CC3)ccc2c1=O | 3.07% |
| Cl.Clc1cccc(-c2ccc(CNCCCN3CCOCC3)o2)c1 | -58.3% |
| Cc1oc(-c2ccc(-c3ccccc3)cc2)nc1CN1CCN(CC(=O)N(C)C)CC1 | -53% |
| Cc1cccc(C)c1OCc1nnc(SCC(=O)NCCc2ccccc2)o1 | -16.5% |
| NNC(=O)Cn1nnc(-c2ccc(C(F)(F)F)cc2)n1 | 14.6% |
| Cc1ccccc1NC(=O)Cn1c(=O)n(-c2ccc(CC(=O)NCC3CCCO3)cc2)c(=O)c2ccccc21 (centres unmarked) | 0.402% |
| COc1cc(S(=O)(=O)NC2CCCCC2C)ccc1F (centres unmarked) | -32.6% |
| CC(C)Oc1ccccc1C1CC(=O)Nc2c1c(=O)n(C)c(=O)n2C (centres unmarked) | 14% |
| Nc1nc(SCc2ccc(Br)cc2)n[nH]1 | 22.1% |
| O=C(NCc1ccccc1)c1onc(CSc2ccccc2)c1C(=O)NCc1ccccc1 | 13.3% |
| CC(=O)N1CC(C)Oc2ccc(S(=O)(=O)NC(CC(=O)O)c3ccccc3C)cc21 (centres unmarked) | 21.4% |
| CC(=O)N1CCCc2cc(S(=O)(=O)Nc3cccc(C)c3C)ccc21 | 3.41% |

| Structure (SMILES) | hERG current change (%, negative = inhibition) at 10uM |
| --- | --- |
| O=C(CC1NCCNC1=O)OCCCc1ccccc1 (centres unmarked) | -21.5% |
| Cc1ccc(S(=O)(=O)N(C)CC(=O)N/N=C/c2ccc(C)o2)cc1 | -24.8% |
| COc1ccc(C(=O)C2CCCN(C(=O)Cc3c(C)noc3C)C2)cc1OC (centres unmarked) | -3.81% |
| Cc1ccc(-c2nn(-c3ccccc3)cc2C2CC(c3ccccc3)=NN2C(=O)CCC(=O)O)cc1 (centres unmarked) | -7.08% |
| COC(=O)CSc1nnc(-c2ccccc2O)n1-c1ccc(C)cc1 | -4.35% |
| Cc1ccccc1/C=C/C(=O)c1ccc([N+](=O)[O-])o1 | 0.656% |
| COc1ccc(Cn2c(-c3ccco3)nc3c(c(=O)c4ccccc4n3C)c2=O)cc1 | -35.3% |
| CC1(c2ccccc2)CC(c2ccccc2)=Nc2ccccc2N1 (centres unmarked) | 11.4% |
| CN(C)CCCNS(=O)(=O)c1cc(Cl)c(Cl)cc1Cl | -27.8% |
| CCC(C)NS(=O)(=O)c1ccc(NC(=O)c2cccs2)cc1 (centres unmarked) | 7.51% |
| CCc1nc(N)c(C#N)c(-c2ccc(O)c(OC)c2)c1C | 4.46% |
| Cn1c(=O)c2c(SCC(=O)N3CCN(c4ccccc4)CC3)nc(C3CC3)nc2n(C)c1=O | -19.4% |
| C=CCN(C(=O)CSC1=NC(=O)CN1C(C)=O)c1nc(C)c(-c2ccccc2)s1 | -4.4% |
| COc1ccc(NS(=O)(=O)c2ccc3nc(COc4ccc5ccccc5c4)[nH]c3c2)cc1 | 20.8% |
| Cc1ccc(-c2cc(C(=O)N/N=C/C(Br)=C/c3ccccc3)n[nH]2)o1 | 12.7% |
| CCOc1ccc(N2CC(C(=O)NCCc3c[nH]c4ccc(OC)cc34)CC2=O)cc1 (centres unmarked) | -35.8% |
| COC(=O)C(NC(C)=O)(Nc1nc(C)cs1)C(F)(F)F (centres unmarked) | 4.77% |
| CC1Oc2cc3oc4c(O)c5c(cc4c(=O)c3c(O)c2C1(C)C)C=CC(C)(C)O5 (centres unmarked) | -1.17% |
| COc1ccc(-n2ccsc2=S)cc1 | -3.38% |
| COc1ccc(C)cc1NC(=O)C(=O)N1CCCC1 | 19.2% |
| Cc1ccc(CNC(=O)CC(NC(=O)c2ccccc2)c2ccccc2)cc1 (centres unmarked) | -13.2% |
| CCOc1ccc2nc(NC(=O)/C=C/c3ccc4c(c3)OCO4)sc2c1 | 14.9% |
| CNC(=S)N(Cc1ccco1)Cc1cc2cc(OC)c(OC)cc2[nH]c1=O | -29.9% |

| Structure (SMILES) | hERG current change (%, negative = inhibition) at 10uM |
| --- | --- |
| COc1ccc(-c2nc(N3CCOCC3)nc3n[nH]c(N)c23)cc1 | -7.86% |
| CN(C)/C=N/NC(=O)c1ccc(Cl)cc1 | 13.4% |
| CCOc1ccc(-n2c(SCC(=O)NCc3ccco3)nc3ccccc3c2=O)cc1 | 18.8% |
| Cc1ccc(S(=O)(=O)N2[C@@H](c3ccccc3)C(C(=O)O)=CC[C@H]2c2ccc3c(c2)OCO3)cc1 | 9.21% |
| CCN1CCN(S(=O)(=O)c2ccc(Cl)c(C(=O)NCCc3ccccc3)c2)CC1 | -4.31% |
| O=C(/C=C/c1ccc(Cl)cc1)NCCSc1ccccc1 | -7.28% |
| COc1ccc2nc(/N=C/c3c(C)[nH]n(-c4ccc(C)cc4C)c3=O)sc2c1 | 8.94% |
| COc1ccc(C=O)cc1CN1CCCN(Cc2ccccc2F)S1(=O)=O | -3.87% |
| CCOC(=O)c1c(C)oc2c1c1c(c3ccccc32)OCN(CCCC(=O)O)C1 | -3.96% |
| CCNS(=O)(=O)c1ccc(Br)c(C(=O)OC(C)C(=O)NCC2CCCCC2)c1 (centres unmarked) | -16.5% |
| COc1ccccc1NC(=O)CSc1nc(N)cc(N)n1 | -3.66% |
| Cc1ccc(C)c(NC(=O)c2ccccn2)c1 | -10.7% |
| CN(CCc1cn[nH]c1)Cc1nc(Cc2ccccc2)no1 | 7.12% |
| Cc1cccc(NC(=O)C2(c3ccccc3)CCOCC2)c1 | 15.5% |
| CC1(C)C=C(c2ccc(C(=O)O)s2)CC(C)(C)N1.Cl | 5.49% |
| COc1ccc(NC(=O)c2ccc3ccccc3c2OC)cc1 | -13.1% |
| Cc1ccc(-c2ncccc2OC(=O)C23CC4CC(CC(C4)C2)C3)cc1.Cl | 12% |
| Cc1ccc(S(=O)(=O)c2c(O)c3ccc(C(=O)O)cc3[nH]c2=O)cc1 | 16.1% |
| CC1(C)C2CC=C(CN3CCC(O)CC3)C1C2 (centres unmarked) | -7.45% |
| COc1ccc(C(=O)Nc2ccc(-n3nncc3C(C)(C)C)cc2)cc1 | -26.4% |
